From article doi:10.1101/798769 (bioRxiv, 2019)

T1: NPDP peptide (PfCSP aa 101-116) (Plasmodium falciparum NF54)
T1 chain: NPDPNANPNVDPNANP

T2: NANP trimer peptide (NANP3) (Plasmodium falciparum)
T2 chain: NANPNANPNANP


Legend:
[1] = target: T1, NPDP peptide (PfCSP aa 101-116); experiment: SPR
[2] = target: T2, NANP trimer peptide (NANP3); experiment: ITC

binding result [1] | binding result [2] | Binder
binds |  | mAb 2243 (recombinant human IgG1, kappa) (antibody, V domains shown) VH: QVQLVESGGGVVQPGRSLRLSCAASGFTFSSYGMHWVRQAPGKGLEWVAVIWYDGSNKYYADSVKGRFTISRDNSKNTLYLQMNSLRAEDTAVYYCARALDDASSTSCCALDYWGQGTLVTVSS VL: [skipping about 100 residues]TFGPGTKVDIK
 | binds | Fab fragment of mAb 2243 (Fab, V domains shown) VH: QVQLVESGGGVVQPGRSLRLSCAASGFTFSSYGMHWVRQAPGKGLEWVAVIWYDGSNKYYADSVKGRFTISRDNSKNTLYLQMNSLRAEDTAVYYCARALDDASSTSCCALDYWGQGTLVTVSS VL: [skipping about 100 residues]TFGPGTKVDIK
